Results: PubChem BioAssay AID2451 (National Center for Advancing Translational Sciences (NCATS), 2010)
Screen size: about 290,000 compounds; about 2,100 (0.72%) were called active. Inconclusive results, whose numbers are uncertain, are shown with a selection of clear calls. Calls follow the shape of the dose curve; as a rule, active = well fitted inhibition curve with a large enough effect; inconclusive = small, poorly fitted or top-dose-only effect, or effect the other way; inactive = flat fitted curve, though single readings scatter. A potency beside an inconclusive call is a rough fit, not a confirmed value.

Molecular target: Fructose-bisphosphate aldolase (Giardia intestinalis (strain ATCC 50803 / WB clone C6)) (UniProt A8B2U2)
Sequence of UniProt A8B2U2 (A8B2U2 whole entry, looked up): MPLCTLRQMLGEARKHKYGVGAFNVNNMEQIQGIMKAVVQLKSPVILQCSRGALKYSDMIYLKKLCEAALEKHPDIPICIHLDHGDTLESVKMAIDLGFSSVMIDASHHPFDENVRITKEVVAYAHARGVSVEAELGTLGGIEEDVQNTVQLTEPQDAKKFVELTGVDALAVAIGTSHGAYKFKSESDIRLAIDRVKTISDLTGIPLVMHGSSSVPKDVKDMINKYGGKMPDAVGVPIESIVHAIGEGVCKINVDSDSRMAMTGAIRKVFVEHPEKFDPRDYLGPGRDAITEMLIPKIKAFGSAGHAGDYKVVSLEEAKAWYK
Assay: qHTS Assay for Inhibitors of Fructose-1,6-bisphosphate Aldolase from Giardia Lamblia; also: nearly all actives have a fitted effect of over 55% in size
Conditions: purified Giardia FBPA; activity, negative = inhibition: at 59.6 µM (top of the series) unless noted
Outline: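 40 nM FBPA preincubated 10 min at RT with compound (up to 57.5 uM final), then substrate plus GAPDH/TPI/NAD/arsenate coupling and diaphorase/resazurin added. Fluorescence read after 20 min at RT, 525/598 nm.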
% is scaled to controls: 0 for no effect and ±100 for the full control effect; potency is read from the fitted curve at half-maximal effect; tags tell the direction and shape of the fitted curve.

SMILES | activity, negative = inhibition | Potency
Cc1ccc(Cn2nnc(C(=O)Nc3cccc(C)c3C)c2N)cc1 | inactive: 1.14% | 
COc1ccccc1/C=N/N(C(C)=O)c1nc(-c2ccc(F)cc2)cs1 | inactive: 1.64% | 
Cc1[nH]cnc1CSCc1ccc(F)cc1 |  | inconclusive: 12.6 µM [inhibitor, partial curve]
S=c1[nH]nc(-c2cc(-c3ccco3)[nH]n2)n1-c1ccccc1Cl |  | inconclusive: 17.7 µM [inhibitor, single point]
COc1ccc(CCNC(=O)C(CCC(N)=O)NS(=O)(=O)c2ccc(Cl)cc2)cc1OC (configuration not stated) |  | inconclusive: 8.91 µM [inhibitor, partial curve]
COC(=O)CSc1nc2ncc(Cl)cc2[nH]1 |  | inconclusive: 20 µM [inhibitor, single point]
Cc1ccc(C(C)C)c(OCC#CCN2CCCC2)c1 |  | inconclusive: 19.9 µM [inhibitor, partial curve]
O=S(=O)(Cc1cccc(F)c1)c1c[nH]c2ccccc12 |  | inconclusive: 17.7 µM [inhibitor, single point]
CCCOc1ccccc1NC(=O)CC1Nc2ccccc2NC1=O (configuration not stated) | inactive: -6.3% | 
CCN(CC(=O)Nc1ccc(S(=O)(=O)N2CCCC2)cc1)CC(=O)Nc1cccc(OC)c1 |  | active: 5 µM
CCn1c(CNc2ccc(OC)cc2)nnc1SCC(=O)c1ccc(OC)cc1 |  | inconclusive: 19.9 µM [inhibitor, partial curve]
O=C(NCc1ccncc1)C(=O)Nc1nccs1 |  | inconclusive: 17.7 µM [inhibitor, partial curve]
CCOc1ccc(C(=S)N2CCCC2)cc1OC | inactive: -6.31% | 
CC(=O)c1cc(NC(=O)c2ccccc2)c(=O)oc1C | inactive: 1.16% | 
Cc1nc2cnc(Oc3ccccc3)nc2n(C2CC2)c1=O | inactive: -5.29% | 
COc1ccc(C2OC34CCCCC3C(C#N)(C#N)C2(C#N)C(=N)O4)cc1 (configuration not stated) | inactive: -27% | 
CC(C)c1ccc(C2C3CSCC=C3C(C#N)=C(N)C2(C#N)C#N)cc1 (configuration not stated) |  | inconclusive: 19.9 µM [inhibitor, single point]
CN1CCN(C2=C(Cl)C(=O)C(c3cnc(N4CCCCC4)s3)=C(Cl)C2=O)CC1 | inactive: 4.88% | 
COc1cc(NC(=O)c2cc3c(C)nc4ccccc4c3o2)cc(OC)c1OC | inactive: -2.1% | 
COc1ccc(CCNC(=O)C2CCCN(c3nc(C)cc(C)n3)C2)cc1 (configuration not stated) | inactive: 6.98% | 
COc1ccc(/C=C2\SC(=S)N(NS(=O)(=O)c3ccccc3)C2=O)c(OC)c1 |  | inconclusive: 22.4 µM [inhibitor, single point]
Nc1ccc2nc3c(=O)n(C4CCCCC4)c(=O)[nH]c3nc2c1 |  | inconclusive: 0.354 µM [inhibitor, full curve]
